Source: the supplement of paper PMC4723716
± gives the uncertainty stated by the source. The full ranking holds about 9,900 compounds; the median of “viability index relative to DMSO control” is about 1, and the lowest 2% start at about 0.85. Some of the results follow.

Tested on: Plasmodium falciparum NF54 stage V gametocytes
Experiment: viability index relative to DMSO control (fraction); higher = less gametocyte killing
Details: 2.5 µM, incubation time: 72 h
In short: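 P. falciparum NF54 stage V gametocytes in serum-free screening medium (0.75% gametocytemia, 1.25% hematocrit, 10 µl) were incubated with compound at 2.5 µM in 1,536-well plates for 72 hr at 37°C under low oxygen. Then 3 µl of 2.5 µM MitoTracker Red CMXRos plus 0.13% saponin was added for one to two hours. One field per well was imaged, 20–70 µm2 red particles were counted, and the viability index was the count divided by the plate mean of DMSO wells.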

[1] = library set: Broad Institute DOS
[2] = library set: Broad Institute Blood Stage

Row | SMILES | viability index [1] | viability index [2]
1 | C[C@@H]1CN([C@@H](C)CO)C(=O)c2cc(C3=CCCC3)cnc2O[C@H]1CN(C)C(=O)Nc1ccc(C(F)(F)F)cc1 | 0.972 ± 0.037 | –
2 | CN(C)C(=O)c1ccc(-c2cccc(-c3nc(C(=O)NCc4ccccc4)cc4c3[C@@H](CCO)N([S@](=O)C(C)(C)C)C4)c2)cc1 | 0.905 ± 0.025 | –
3 | Cc1noc(C)c1S(=O)(=O)Nc1ccc2c(c1)C(=O)N([C@@H](C)CO)C[C@H](C)[C@H](CN(C)Cc1ccc(C(=O)O)cc1)OCCCC[C@H](C)O2 | 1.14 ± 0.051 | –
4 | C[C@@H]1CN([C@@H](C)CO)C(=O)CCCn2cc(nn2)CO[C@@H]1CN(C)S(=O)(=O)c1cn(C)cn1 | 1.07 ± 0.062 | –
5 | CC(=O)N1CC2(C1)[C@H](c1ccccc1)[C@@H](CO)N2Cc1ccccc1 | 1.08 ± 0.047 | –
6 | Cc1noc(C)c1S(=O)(=O)N(C)C[C@@H]1Oc2c(NC(=O)c3ccc(-c4nccs4)cc3)cccc2C(=O)N([C@@H](C)CO)C[C@@H]1C | 0.955 ± 0.036 | –
7 | C[C@H]1CNC(=O)[C@@H](Cc2ccc(C(F)(F)F)cc2)CCn2nncc2COC1 | 1.03 ± 0.018 | –
8 | COc1ccccc1CNC(=O)C[C@@H]1CC[C@H]2[C@@H](COc3ccc(NC(C)=O)cc3C(=O)N2C)O1 | 0.974 ± 0.031 | –
9 | C[C@@H]1CN([C@@H](C)CO)C(=O)c2cccc(NC(=O)C3CC3)c2O[C@@H]1CN(C)C(=O)Nc1ccc(C(F)(F)F)cc1 | – | 0.594 ± 0.06
10 | Cc1noc(C)c1S(=O)(=O)Nc1ccc2c(c1)C(=O)N([C@H](C)CO)C[C@H](C)[C@@H](CN(C)Cc1ccc(C(=O)O)cc1)OCCCC[C@@H](C)O2 | 0.909 ± 0.28 | –
11 | CCC(=O)Nc1ccc2c(c1)OC[C@@H](C)N(Cc1ccccc1)C[C@H](C)[C@@H](OC)CN(C)C2=O | 0.96 ± 0.0082 | –
12 | COc1cccc(NC(=O)N[C@@H]2C=C[C@@H](CC(=O)NCc3ccncn3)O[C@@H]2CO)c1 | 1.09 ± 0.068 | –
13 | OC[C@H]1[C@@H](c2ccc(C#Cc3ccccc3F)cc2)[C@@H]2CN(CC3CCOCC3)CCCCN12 | 0.9107 ± 0.0029 | –
14 | COc1ccc(S(=O)(=O)N(C)C[C@@H]2Oc3c(cccc3N(C)C)C(=O)N([C@@H](C)CO)C[C@@H]2C)cc1 | 1.04 ± 0.083 | –
15 | C/C=C/c1ccc2n(c1=O)C[C@H]1[C@H](CO)[C@@H](C(=O)NCCc3cn(C)cn3)[C@@H]2N1C(=O)C1CCC1.C/C=C\c1ccc2n(c1=O)C[C@H]1[C@H](CO)[C@@H](C(=O)NCCc3cn(C)cn3)[C@@H]2N1C(=O)C1CCC1 | 1.08 ± 0.032 | –
16 | O=S(=O)(c1ccc(F)cc1)N1CCCCN2[C@@H](CO)[C@@H](c3ccc(-c4cncnc4)cc3)[C@@H]2C1 | 1.06 ± 0.079 | –
17 | CCCNC(=O)N1[C@@H]2CN(C(=O)c3ccncc3)c3ccccc3[C@@H]2[C@@H]1CO | 1.05 ± 0.054 | –
18 | O=C(NCC[C@@H]1CC[C@@H](NC(=O)c2ccccc2F)[C@H](CO)O1)c1cnccn1 | 1.01 ± 0.047 | –
19 | O=C(c1cccnc1)N1CC(=O)N2[C@@H](CO)[C@@H](c3ccc(-c4ccccc4F)cc3)[C@@H]2C1 | 1.13 ± 0.032 | –
20 | C[C@H]1CN([C@@H](C)CO)C(=O)c2c(c3ccccc3n2C)-c2ccccc2CO[C@@H]1CN(C)C(=O)[C@H](Cc1ccccc1)N(C)C | 1.02 ± 0.038 | –
21 | OC[C@H]1[C@@H](c2ccccc2)C2(CN(Cc3cccnc3)C2)N1Cc1ccncc1 | 1.12 ± 0.034 | –
22 | C[C@@H]1C/C=C/C[C@@H](c2ccc3c(c2)OCO3)NC(=O)[C@@H](C)N(C)C(=O)c2ccccc2O1.C[C@@H]1C/C=C\C[C@@H](c2ccc3c(c2)OCO3)NC(=O)[C@@H](C)N(C)C(=O)c2ccccc2O1 | 1.02 ± 0.023 | –
23 | C[C@@H]1CCCCO[C@@H](CN(C)Cc2ccc(C(F)(F)F)cc2)[C@@H](C)CN([C@H](C)CO)C(=O)c2cc(NC(=O)Nc3cccc4ccccc34)ccc2O1 | 1.07 ± 0.06 | –

Row | SMILES | viability index [1] | viability index [2]
24 | COc1ccccc1NC(=O)N1C[C@H]2[C@@H](c3ccccc31)[C@@H](CO)N2C(=O)C1CCCC1 | 1.02 ± 0.069 | –
25 | Cc1ccccc1S(=O)(=O)N1CCCCN2[C@H](C1)[C@@H](c1ccc(C#CCN(C)C)cc1)[C@@H]2CO | 1.023 ± 0.0063 | –
26 | Cc1noc(C)c1NC(=O)Nc1ccc2c(c1)CC(=O)N([C@H](C)CO)C[C@H](C)[C@@H](CN(C)Cc1ccc(C(F)(F)F)cc1)O2 | 0.9165 ± 0.004 | –
27 | CN1C(=O)c2cc(NC(=O)c3ccc(F)c(F)c3)ccc2OC[C@H]2O[C@H](CC(=O)N3CCCCC3)CC[C@@H]21 | 1 ± 0.018 | –
28 | Cc1noc(C)c1S(=O)(=O)Nc1cccc2c1O[C@@H](CN(C)Cc1ccc(C(F)(F)F)cc1)[C@@H](C)CN([C@H](C)CO)C2=O | 1.04 ± 0.033 | –
29 | O=C(Nc1cc(F)ccc1F)N[C@@H]1CC[C@H](CCn2cc(C3CCCCC3)nn2)O[C@H]1CO | 1.08 ± 0.071 | –
30 | COc1ccc2c3c([nH]c2c1)[C@H](CO)N(C[C@]31CN(CC2CC2)C1)C(=O)Nc1cccc(F)c1 | 0.933 ± 0.08 | –
31 | CCC(=O)N1CC(=O)N2[C@H](C1)[C@H](c1ccc(-c3ccc(C#N)cc3)cc1)[C@@H]2CO | 1.02 ± 0.044 | –
32 | COc1ccccc1NC(=O)N1C[C@@H](O)COC[C@@H]2O[C@@H](CC(=O)N3CCC(Cc4ccccc4)CC3)CC[C@H]21 | 0.973 ± 0.053 | –
33 | O=C(c1ccccn1)N1C[C@H]2[C@@H](c3ccccc31)[C@H](CO)N2C(=O)Nc1ccccc1Cl | 1.01 ± 0.037 | –
34 | CC(C)C#Cc1ccc([C@@H]2[C@H](CO)N3C(=O)CN(C(=O)NC4CCCC4)C[C@@H]23)cc1 | 1.01 ± 0.023 | –
35 | Cc1cc(C(=O)Nc2ccc3c(c2)C(=O)N(C)[C@@H]2CC[C@H](CC(=O)O)O[C@@H]2CO3)no1 | 0.861 ± 0.044 | –
36 | CCS(=O)(=O)N1CCCCN2[C@H](CO)[C@@H](c3ccc(-c4ccc(C(=O)N(C)C)cc4)cc3)[C@H]2C1 | 1.11 ± 0.14 | –
37 | O=C1CN(S(=O)(=O)Cc2ccccc2)C[C@H]2[C@@H](c3ccc(C#Cc4ccccc4)cc3)[C@H](CO)N12 | 1.03 ± 0.046 | –
38 | O=C([C@H]1[C@H](CO)[C@H]2Cn3c(cccc3=O)[C@@H]1N2S(=O)(=O)c1ccccc1F)N1CCCCC1 | 1.13 ± 0.045 | –
39 | O=C(C[C@@H]1C=C[C@H](NC(=O)c2ccc3c(c2)OCO3)[C@H](CO)O1)NC1Cc2ccccc2C1 | 0.985 ± 0.063 | –
40 | CS(=O)(=O)N1[C@H](CO)[C@@H](c2ccc(-c3ccccc3F)cc2)[C@@H]1C#N | 1.16 ± 0.027 | –
41 | O=C(C1CCC1)N1CCCCN2[C@@H](CO)[C@@H](c3ccc(-c4ccncc4)cc3)[C@@H]2C1 | 1.097 ± 0.0087 | –
42 | O=C(CN1CCOCC1)N[C@@H]1CC[C@H](CCn2cc(C3CC3)nn2)O[C@@H]1CO | 1.17 ± 0.041 | –
43 | C[C@H](CO)N1C[C@H](C)[C@@H](CN(C)C(=O)Nc2cccc(F)c2)Oc2cc(C#CC3(O)CCCC3)ccc2S1(=O)=O | 1.08 ± 0.013 | –
44 | O=C(C1CCOCC1)N1CC(=O)N2[C@H](CO)[C@H](c3ccc(C#CC4CCCCC4)cc3)[C@@H]2C1 | 1.06 ± 0.036 | –
45 | O=C(C[C@H]1C=C[C@H](NS(=O)(=O)c2ccccc2)[C@@H](CO)O1)NCCN1CCCCC1 | 1.03 ± 0.054 | –
46 | C[C@H](CO)N1C[C@H](C)[C@H](CN(C)S(=O)(=O)c2cccc(C#N)c2)OCc2ccccc2-c2ccccc2C1=O | 0.965 ± 0.052 | –

Row | SMILES | viability index [1] | viability index [2]
47 | CC(=O)N1C[C@H]2[C@@H](c3ccccc31)[C@@H](CO)N2Cc1ccc(Cl)cc1 | 0.97 ± 0.12 | –
48 | CCS(=O)(=O)Nc1ccc2c(c1)C(=O)N(C)[C@H]1CC[C@H](CC(=O)NC3CCCCC3)O[C@H]1CO2 | 1.062 ± 0.0022 | –
49 | N#C[C@H]1[C@@H](c2ccccc2C2=CCCCC2)[C@@H](CO)N1C(=O)c1ccccn1 | 1.12 ± 0.11 | –
50 | CO[C@@H](CN(C)CC1CCOCC1)[C@@H](C)CN(C(=O)Nc1ccc(F)cc1)[C@H](C)CO | 1.04 ± 0.013 | –
51 | COc1ccc2c3c([nH]c2c1)[C@@H](CO)N(C[C@]31CCN(CC1)C(=O)Cc1ccncc1)C(=O)Nc1ccc(F)cc1 | 0.9669 ± 0.006 | –
52 | C[C@@H]1CN([C@@H](C)CO)C(=O)c2cc(NS(=O)(=O)c3cccs3)ccc2O[C@@H](C)CCCCO[C@@H]1CN(C)C(=O)c1ccncc1 | 1.13 ± 0.027 | –
53 | C[C@@H]1CN([C@@H](C)CO)C(=O)CCCn2cc(nn2)CO[C@@H]1CN(C)S(=O)(=O)c1cccc(C#N)c1 | 1.06 ± 0.048 | –
54 | O=C(Nc1cccc(F)c1)N1C[C@H]2[C@@H](c3ccccc31)[C@@H](CO)N2C(=O)Cc1ccccn1 | 1.05 ± 0.094 | –
55 | CN1C(=O)c2cc(NS(C)(=O)=O)ccc2OC[C@H]2O[C@@H](CC(=O)NCc3ccccc3)CC[C@H]21 | 1.049 ± 0.0094 | –
56 | O=C(CC1CC1)N1CC(=O)N2[C@H](C1)[C@@H](c1ccc(C#Cc3cccc(F)c3)cc1)[C@@H]2CO | 0.964 ± 0.054 | –
57 | CN1C(=O)c2cc(NC(=O)Cc3cccs3)ccc2OC[C@@H]2O[C@H](CC(=O)NCc3ccc(-c4ccccc4)cc3)CC[C@H]21 | 1.01 ± 0.14 | –
58 | C[C@H]1CN([C@@H](C)CO)C(=O)c2cc(NC(=O)CCCN(C)C)ccc2O[C@H]1CN(C)Cc1ccc(Cl)c(Cl)c1 | 1.023 ± 0.0079 | –
59 | CC(C)(C)S(=O)N1Cc2cc(C(=O)N3CCN(Cc4ccccc4)CC3)nc(-c3cccc(-c4cc5ccccc5o4)c3)c2[C@H]1CCO (some centres not stated) | 0.7362 ± 0.0068 | –
60 | CCNC(=O)C[C@@H]1CC[C@@H]2[C@H](COC[C@H](O)CN2C(=O)c2ccccn2)O1 | 1.05 ± 0.038 | –
61 | CN(C)CC(=O)N1[C@@H](CO)[C@@H](c2ccccc2)C12CN(C(=O)c1ccc(F)cc1)C2 | 1.12 ± 0.012 | –
62 | CO[C@@H]1CN(C)C(=O)c2ccc(NC(=O)c3cccc(F)c3)cc2OC[C@H](C)NC[C@@H]1C | 1.13 ± 0.05 | –
63 | CCCNC(=O)N1C[C@@H]2[C@H](c3ccccc31)[C@H](CO)N2C(=O)Nc1ccccc1F | 1.1 ± 0.04 | –
64 | CO[C@@H](CN(C)S(=O)(=O)c1ccc(C)cc1)[C@H](C)CN(C(=O)Nc1ccccc1F)[C@@H](C)CO | 0.961 ± 0.013 | –
65 | COc1ccccc1NC(=O)N1C[C@H]2[C@@H](c3ccccc31)[C@H](CO)N2Cc1ccc2c(c1)OCO2 | 1.01 ± 0.029 | –
66 | COc1cccc(S(=O)(=O)N[C@@H]2CC[C@H](CC(=O)NC3Cc4ccccc4C3)O[C@@H]2CO)c1 | 0.943 ± 0.055 | –
67 | CCCNC(=O)N1[C@H](C#N)[C@H](c2ccc(-c3cccc(OC)c3)cc2)[C@@H]1CO | – | 0.866 ± 0.032
